Data on 20 substances can be found in paper PMC12215968.

Targets include CANX (UniProt P27824); CCT2 (UniProt P78371); CCT4 (UniProt P50991); TCP1 (UniProt P17987); CCT8 (UniProt P50990); EEF1D (UniProt P29692); H1-2 (UniProt P16403); MCM6 (UniProt Q14566); NEFM (UniProt P07197); PHB2 (UniProt Q99623); RPL22 (UniProt P35268); RPS11 (UniProt P62280); SERBP1 (UniProt Q8NC51); SMC4 (UniProt Q9NTJ3); SND1 (UniProt Q7KZF4); SRP9 (UniProt P49458); STIP1 (UniProt P31948); XRCC5 (UniProt P13010); YWHAZ (UniProt P63104).

Assay in all cases: cross-linking mass spectrometry
Settings in all cases: TSTO, in cells

The source holds more than one record for some entries. The other results are left out here. The source may hold further records. Some protein pairs were linked at several places, one record each.

PDCD5, sequence (O14737 whole entry): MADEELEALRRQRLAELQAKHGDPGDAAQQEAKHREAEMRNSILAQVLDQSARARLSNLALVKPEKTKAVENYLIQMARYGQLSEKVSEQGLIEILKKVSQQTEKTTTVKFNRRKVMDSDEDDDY
CCT4, sequence (P50991 whole entry): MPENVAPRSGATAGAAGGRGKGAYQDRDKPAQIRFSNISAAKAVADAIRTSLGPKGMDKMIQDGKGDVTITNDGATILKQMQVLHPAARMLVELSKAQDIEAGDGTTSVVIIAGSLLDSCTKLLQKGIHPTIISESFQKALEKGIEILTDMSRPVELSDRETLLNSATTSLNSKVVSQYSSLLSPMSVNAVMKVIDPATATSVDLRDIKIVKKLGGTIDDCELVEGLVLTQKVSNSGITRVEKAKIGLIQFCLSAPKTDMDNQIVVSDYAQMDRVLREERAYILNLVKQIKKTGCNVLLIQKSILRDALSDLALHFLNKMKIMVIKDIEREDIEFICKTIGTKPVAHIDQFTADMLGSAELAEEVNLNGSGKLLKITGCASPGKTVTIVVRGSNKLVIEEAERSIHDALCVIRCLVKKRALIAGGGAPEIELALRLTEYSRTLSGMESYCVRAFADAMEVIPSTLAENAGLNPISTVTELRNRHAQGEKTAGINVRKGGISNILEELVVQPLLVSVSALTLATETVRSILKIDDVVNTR
UniProt P29692, sequence (P29692 whole entry): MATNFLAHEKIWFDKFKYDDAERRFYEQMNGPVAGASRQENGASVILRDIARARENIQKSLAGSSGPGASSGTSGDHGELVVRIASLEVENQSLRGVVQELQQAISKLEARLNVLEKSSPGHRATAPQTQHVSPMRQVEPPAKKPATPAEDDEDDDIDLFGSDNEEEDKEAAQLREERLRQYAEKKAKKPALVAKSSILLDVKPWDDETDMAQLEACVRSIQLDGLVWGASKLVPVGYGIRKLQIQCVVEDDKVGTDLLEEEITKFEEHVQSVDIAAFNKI
XRCC6, sequence (P12956 whole entry): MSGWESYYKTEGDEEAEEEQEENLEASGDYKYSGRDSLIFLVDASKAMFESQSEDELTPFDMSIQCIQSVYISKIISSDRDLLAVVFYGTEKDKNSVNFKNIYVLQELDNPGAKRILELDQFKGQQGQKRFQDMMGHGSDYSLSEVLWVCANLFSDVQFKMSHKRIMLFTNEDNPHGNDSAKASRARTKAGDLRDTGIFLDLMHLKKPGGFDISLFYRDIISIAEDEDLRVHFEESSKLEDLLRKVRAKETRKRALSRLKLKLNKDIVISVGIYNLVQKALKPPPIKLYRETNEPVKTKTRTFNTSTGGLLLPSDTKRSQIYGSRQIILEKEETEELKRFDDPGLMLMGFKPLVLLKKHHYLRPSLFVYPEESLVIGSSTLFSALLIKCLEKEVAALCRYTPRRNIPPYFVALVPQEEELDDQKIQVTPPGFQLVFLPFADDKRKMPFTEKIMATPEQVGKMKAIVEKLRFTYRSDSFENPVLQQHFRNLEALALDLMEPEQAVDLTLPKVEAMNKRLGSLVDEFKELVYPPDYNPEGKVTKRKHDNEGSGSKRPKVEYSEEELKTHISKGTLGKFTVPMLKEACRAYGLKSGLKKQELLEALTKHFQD
UniProt P13010, sequence (P13010 whole entry): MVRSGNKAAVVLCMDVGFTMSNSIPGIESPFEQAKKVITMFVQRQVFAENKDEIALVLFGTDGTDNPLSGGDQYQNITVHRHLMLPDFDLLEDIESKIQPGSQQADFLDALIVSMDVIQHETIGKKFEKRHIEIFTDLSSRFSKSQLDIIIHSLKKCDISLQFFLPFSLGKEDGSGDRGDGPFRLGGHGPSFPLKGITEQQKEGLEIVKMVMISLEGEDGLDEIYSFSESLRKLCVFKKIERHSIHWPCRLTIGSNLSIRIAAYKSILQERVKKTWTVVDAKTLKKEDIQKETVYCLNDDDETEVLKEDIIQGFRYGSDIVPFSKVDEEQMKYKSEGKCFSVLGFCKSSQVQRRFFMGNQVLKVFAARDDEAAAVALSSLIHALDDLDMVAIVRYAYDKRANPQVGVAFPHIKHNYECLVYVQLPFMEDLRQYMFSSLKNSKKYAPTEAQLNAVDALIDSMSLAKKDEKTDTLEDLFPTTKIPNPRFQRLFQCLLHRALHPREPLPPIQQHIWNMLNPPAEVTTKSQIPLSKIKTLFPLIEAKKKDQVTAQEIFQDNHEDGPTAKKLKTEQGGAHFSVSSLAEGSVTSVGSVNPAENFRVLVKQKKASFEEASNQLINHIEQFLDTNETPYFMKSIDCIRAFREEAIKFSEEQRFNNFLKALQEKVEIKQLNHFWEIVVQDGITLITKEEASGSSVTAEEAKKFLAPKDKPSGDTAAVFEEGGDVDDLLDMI
UniProt P07197, sequence (P07197 whole entry): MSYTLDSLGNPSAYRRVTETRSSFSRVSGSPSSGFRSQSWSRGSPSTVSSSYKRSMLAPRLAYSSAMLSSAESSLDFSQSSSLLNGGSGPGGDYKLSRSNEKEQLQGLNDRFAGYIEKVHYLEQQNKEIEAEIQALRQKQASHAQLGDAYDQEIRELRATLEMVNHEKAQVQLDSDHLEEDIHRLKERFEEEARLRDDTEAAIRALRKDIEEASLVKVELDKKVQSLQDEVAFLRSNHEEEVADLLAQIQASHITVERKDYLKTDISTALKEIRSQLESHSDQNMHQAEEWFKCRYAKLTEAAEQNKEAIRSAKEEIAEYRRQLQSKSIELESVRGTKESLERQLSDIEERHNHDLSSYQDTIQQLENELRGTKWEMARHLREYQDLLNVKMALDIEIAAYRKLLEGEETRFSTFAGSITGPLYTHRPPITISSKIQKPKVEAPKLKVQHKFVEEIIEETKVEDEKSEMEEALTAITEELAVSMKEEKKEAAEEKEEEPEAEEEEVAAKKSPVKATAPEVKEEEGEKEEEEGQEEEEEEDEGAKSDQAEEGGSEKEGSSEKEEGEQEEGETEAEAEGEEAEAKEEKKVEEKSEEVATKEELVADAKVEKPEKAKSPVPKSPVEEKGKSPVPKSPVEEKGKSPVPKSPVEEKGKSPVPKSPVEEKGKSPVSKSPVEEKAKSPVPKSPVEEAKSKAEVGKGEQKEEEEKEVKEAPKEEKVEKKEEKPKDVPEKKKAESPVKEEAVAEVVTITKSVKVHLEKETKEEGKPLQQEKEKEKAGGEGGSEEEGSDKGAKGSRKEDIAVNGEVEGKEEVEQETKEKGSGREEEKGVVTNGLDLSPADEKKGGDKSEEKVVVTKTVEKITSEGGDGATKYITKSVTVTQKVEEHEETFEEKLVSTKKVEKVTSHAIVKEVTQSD
EEF1G, sequence (P26641 whole entry): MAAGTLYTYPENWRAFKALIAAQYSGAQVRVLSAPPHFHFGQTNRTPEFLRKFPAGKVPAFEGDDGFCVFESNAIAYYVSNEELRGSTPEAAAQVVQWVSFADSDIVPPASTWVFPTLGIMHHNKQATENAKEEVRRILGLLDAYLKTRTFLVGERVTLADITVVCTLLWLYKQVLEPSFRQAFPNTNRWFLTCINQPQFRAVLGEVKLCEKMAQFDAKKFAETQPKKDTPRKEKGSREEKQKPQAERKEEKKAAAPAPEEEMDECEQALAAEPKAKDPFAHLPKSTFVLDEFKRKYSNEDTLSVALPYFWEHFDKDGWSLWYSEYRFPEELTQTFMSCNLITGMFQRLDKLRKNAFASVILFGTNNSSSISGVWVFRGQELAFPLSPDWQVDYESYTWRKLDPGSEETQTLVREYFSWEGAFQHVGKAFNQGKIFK
SMC2, sequence (O95347 whole entry): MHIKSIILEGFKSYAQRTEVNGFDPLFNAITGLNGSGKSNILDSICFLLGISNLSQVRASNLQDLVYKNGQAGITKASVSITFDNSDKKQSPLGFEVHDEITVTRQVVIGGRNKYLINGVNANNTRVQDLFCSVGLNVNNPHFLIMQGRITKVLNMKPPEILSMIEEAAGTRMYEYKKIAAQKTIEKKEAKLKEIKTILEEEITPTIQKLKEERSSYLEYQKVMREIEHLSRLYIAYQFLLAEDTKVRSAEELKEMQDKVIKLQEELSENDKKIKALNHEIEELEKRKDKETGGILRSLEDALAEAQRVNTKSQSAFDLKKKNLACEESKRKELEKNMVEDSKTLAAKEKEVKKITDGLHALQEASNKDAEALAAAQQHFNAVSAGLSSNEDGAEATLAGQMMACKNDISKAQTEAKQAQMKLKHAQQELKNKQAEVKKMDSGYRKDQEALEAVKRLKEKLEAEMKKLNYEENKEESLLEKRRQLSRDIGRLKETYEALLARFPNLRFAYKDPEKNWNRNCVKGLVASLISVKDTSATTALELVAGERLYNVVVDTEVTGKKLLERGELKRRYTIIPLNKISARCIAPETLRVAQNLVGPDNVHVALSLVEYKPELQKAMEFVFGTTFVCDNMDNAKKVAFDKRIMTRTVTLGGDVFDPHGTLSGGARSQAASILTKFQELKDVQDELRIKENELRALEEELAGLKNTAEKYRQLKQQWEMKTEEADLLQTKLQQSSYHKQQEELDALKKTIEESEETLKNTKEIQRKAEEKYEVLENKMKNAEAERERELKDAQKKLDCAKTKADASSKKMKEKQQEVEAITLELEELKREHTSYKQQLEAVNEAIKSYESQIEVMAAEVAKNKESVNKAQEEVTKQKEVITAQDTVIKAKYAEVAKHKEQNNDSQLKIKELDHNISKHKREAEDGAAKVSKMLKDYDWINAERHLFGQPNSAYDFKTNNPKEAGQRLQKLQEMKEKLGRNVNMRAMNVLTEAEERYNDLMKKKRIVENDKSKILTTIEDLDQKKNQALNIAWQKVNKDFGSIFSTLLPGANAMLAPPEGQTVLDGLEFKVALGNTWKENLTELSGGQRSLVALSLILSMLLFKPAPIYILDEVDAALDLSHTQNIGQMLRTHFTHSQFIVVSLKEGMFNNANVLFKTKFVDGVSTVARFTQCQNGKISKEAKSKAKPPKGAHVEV
CCT4, P50991, sequence (P50991 whole entry): as the sequence (P50991 whole entry) above
SRP14, sequence (P37108 whole entry): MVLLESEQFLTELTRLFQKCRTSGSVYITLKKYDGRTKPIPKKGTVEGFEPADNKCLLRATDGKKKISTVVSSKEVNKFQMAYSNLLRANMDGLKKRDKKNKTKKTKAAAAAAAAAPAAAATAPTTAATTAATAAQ

For PPIB, P23284, the cross-linked residues entry in the experiment with CANX was “K116 - K90 and K116 - K127”.

For the substance CCT4, P50991, the cross-linked residues result with CCT2 is “K21 - K46 and K21 - K176 and K21 - K522 and K55 - K176 and K65 - K522 and K288 - K272 and K531 - K46”.

CCT5, P48643: in the experiment with CCT2, the cross-linked residues result was “K170 - K135 and K232 - K250 and K265 - K250 and K275 - K263 and K275 - K272 and K392 - K82”.

In the case of PDCD5, O14737, the cross-linked residues result with CCT4 is “K98 - K395 and K110 - K395”; in the experiment with TCP1, “K20 - K541 and K98 - K541 and K105 - K532 and K105 - K541”.

As for CCT6A, P40227, the cross-linked residues result with CCT8 was “K10 - K440 and K199 - K400 and K377 - K400”.

Turning to EEF1G, P26641, in the experiment with EEF1D, the cross-linked residues result was “K219 - K17 and K220 - K10 and K220 - K17 and K227 - K17”.

In the case of H1-4, P10412, in the experiment with H1-2, the cross-linked residues result was “K168 - K178 and K168 - K191”.

With MCM2, P49736, in the experiment with MCM6, the cross-linked residues entry is “K178 - K99 and K178 - K102”.

In the case of NEFL, P07196, the cross-linked residues entry with NEFM is “K128 - K139 and K293 - K307 and K293 - K314”.

With PHB1, P35232, in the experiment with PHB2, the cross-linked residues result is “K83 - K200 and K128 - K89 and K186 - K97 and K186 - K200 and K202 - K216”.

For the substance NPM1, P06748, in the experiment with RPL22, the cross-linked residues result was “K202 - K5 and K212 - K5”.

As to EIF4B, P23588, the cross-linked residues entry with RPS11 was “K6 - K45 and K6 - K144”.

For RPS12, P25398, the cross-linked residues result in the experiment with SERBP1 is “K116 - K286 and K116 - K299”.

Regarding RPS3A, P61247, the cross-linked residues result in the experiment with SERBP1 is “K240 - K122 and K249 - K68”.

Consider SMC2, O95347, for which the cross-linked residues entry with SMC4 was “K580 - K731 and K643 - K680 and K716 - K820 and K750 - K522 and K911 - K1009 and K963 - K1031 and K963 - K1037”.

With RPS9, P46781, in the experiment with SND1, the cross-linked residues result was “K121 - K386 and K121 - K513”.

For SRP14, P37108, in the experiment with SRP9, the cross-linked residues result is “K42 - K76 and K74 - K76”.

With HSP90AB1, P08238, the cross-linked residues entry with STIP1 is “K435 - K486 and K435 - K530”.

XRCC6, P12956: in the experiment with XRCC5, the cross-linked residues result was “K9 - K265 and K114 - K325 and K189 - K603 and K317 - K282 and K539 - K399 and K591 - K144”.

On to YWHAQ, P27348, for which the cross-linked residues entry in the experiment with YWHAZ was “K9 - K85 and K85 - K9”.
